In PubChem BioAssay AID743279 (National Center for Advancing Translational Sciences (NCATS), 2014):
The campaign covered roughly 360,000 compounds. About 17,000 (4.7%) were called active. Inconclusive means that the source gave no clear call. Such entries were picked first, then a sample of the others. No stated cut-off is given here; in the data, active means activity change below about -50%; inconclusive means mostly about -30% to -49%; inactive means weaker than that.

test: qHTS for Inhibitors of Inflammasome Signaling: IL-1-beta AlphaLISA Primary Screen; conditions: THP-1 LPS/ATP IL-1B secretion, 16 h; at 57.5 µM, stronger effect = lower value
Method in brief: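 THP-1 cells pretreated 1 hr with compounds (up to 57.5 uM final), then stimulated with LPS (250 ng/mL final) plus ATP (1.25 mM final); secreted IL-1B measured by AlphaLISA after 16 hr, decreased signal indicating inhibition.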
On the % scale 0 is the no-effect control and ±100 the full control effect.

| SMILES | activity change |
| --- | --- |
| Cn1ccnc1C(O)c1cccc(OCc2ccccc2)c1 (stereo unspecified) | inactive: 8.29% |
| O=[N+]([O-])c1ccccc1SNc1ccccc1 | inconclusive: -30.4% |
| CC(C)C[C@H]1CN=C(N(C)C)N1CC1CCCCCC1 | inactive: -13.6% |
| Cc1cnc(NC(=O)c2ccc(OCC3CCCO3)cc2)s1 (stereo unspecified) | inactive: 29.3% |
| CC(C)(C)c1ccc(C(=O)N2CCCC2c2cccs2)cc1 (stereo unspecified) | active: -99.4% |
| COc1ccc(-n2cc(CNCCCN3CCCC3=O)c(-c3ccccc3Cl)n2)cc1 | inconclusive: -35% |
| O=C(Nc1ccc2c(c1)OCO2)Nc1ccc(F)cc1F | inactive: 0% |
| O=S(=O)(Nc1ccccc1N1CCCCC1)c1ccc(F)cc1F | inactive: -22.1% |
| CSC(=NS(=O)(=O)c1ccc(N)cc1)NS(=O)(=O)c1cccs1 | inactive: 2.52% |
| FC(F)Sc1ccc(NC(=S)NC2CCCCC2)cc1 | inconclusive: -31.1% |
| COc1cc(OC)c(N(C)C(=O)c2cc3c(s2)-c2ccccc2S(=O)(=O)C3)cc1Cl | inconclusive: -42.2% |
| COc1ccc(C(=O)Nc2ccc(F)cc2F)cc1OC | inconclusive: -30.4% |
| CCOC(=O)c1cc(-c2ccc(F)cc2)nc2c1c(=O)[nH]c(=O)n2Cc1ccccc1 | inactive: 14.1% |
| Cc1ccc(S(=O)(=O)CCc2nnc(N)s2)cc1C | inactive: 20.6% |
| CC(C)(C)OC(=O)N[C@H]1C=C[C@@H](OC(=O)CC(=O)OCC(F)(F)F)C1 | inactive: 27.5% |
| CCOc1ccc(/C=C/C(=O)c2c(O)cc(C)oc2=O)cc1 | inconclusive: -36.2% |
| Cc1nn2c(-c3cccc(NC(=O)c4ccco4)c3)nnc2c2ccccc12 | inconclusive: -44.9% |
| O=C(CCC1CCCN(C(=O)C2(c3ccccc3)CC2)C1)N1CCN(c2ccccn2)CC1 (stereo unspecified) | inconclusive: -43.8% |
| O=C(c1ccc(-c2cccc(C(F)(F)F)c2)o1)N1CCN(c2ccccc2O)CC1 | inconclusive: -33% |
| CC(=O)Nc1sc2c(c1C(c1ccc(F)cc1)N1CCOCC1)CCCC2 (stereo unspecified) | inconclusive: -41.5% |
| COc1ccc(NC(=O)c2cn(CCC#N)nc2-c2cc3ccccc3o2)cc1 | inconclusive: -43.2% |
| O=[N+]([O-])c1ccc(N2CCN(c3ccccc3O)CC2)c(Cl)c1 | inconclusive: -44.2% |
| COc1ccc(NCc2nnc(SCc3ccc(Cl)cc3)n2-c2ccccc2)cc1 | active: -52.6% |

| SMILES | activity change |
| --- | --- |
| CC(=O)c1nnn(-c2ccc(F)cc2F)c1C | inactive: -4.76% |
| CC(=O)Nc1ccc2c(c1)C(N1CC3CCC(CC3)C1)c1ccccc1-2 (stereo unspecified) | inconclusive: -40.8% |
| CCOC(=O)Cc1csc(NC(=O)CN2CCOCC2)n1 | inactive: -2.24% |
| CCn1nnc2sc3c(c2c1=O)CCC(C)C3 (stereo unspecified) | inconclusive: -41.1% |
| CCc1ccc(C(=O)Nc2ccc3nc(C)ccc3c2)cc1 | inconclusive: -34.9% |
| Cc1ccc(NC(=O)c2ncn(CCCNCc3ccccc3)n2)cc1C | inconclusive: -30.1% |
| Cc1ccc(NC(NC(=O)c2cccs2)C(Cl)(Cl)Cl)cc1C (stereo unspecified) | inconclusive: -46.3% |
| O=C(CCl)Nc1ccccc1Sc1ccccc1 | inconclusive: -43.1% |
| Clc1ccccc1-c1nc(N/N=C/c2cccnc2)c2ccccc2n1 | inconclusive: -35.9% |
| CCOC(=O)C1=NN(C(=O)COc2ccccc2)C(O)(c2ccc(Cl)cc2)C1 (stereo unspecified) | inconclusive: -36.4% |
| C=CCOc1ccccc1C(=O)/C=C1/C(=O)Nc2ccccc21 | inconclusive: -43.8% |
| O=C(c1cccs1)N1CCN=C1SCc1cccc(F)c1 | inconclusive: -44.3% |
| CCOC(=O)c1cccc(Nc2nc(-c3cccnc3)nc3ccccc23)c1 | active: -108% |
| CSc1ccc(CCNC(=O)c2cc(C)nn2-c2ccccc2)cc1 | inactive: 2.77% |
| CCCCn1c(N)c(N(CC(C)C)C(=O)C2CCN(S(=O)(=O)c3ccc(C)c(C)c3)CC2)c(=O)[nH]c1=O | inconclusive: -30.8% |
| COc1ccccc1-c1cc(SC)c(C#N)c(=O)o1 | inconclusive: -40.8% |
| CSC1=NC(=O)/C(=C/c2ccc(SC)cc2)S1 | inconclusive: -32.6% |
| Oc1cc(OCc2ccccc2)ccc1-c1[nH]ncc1-c1ccccc1 | active: -101% |
| O=C(CN(Cc1ccccc1)S(=O)(=O)c1ccccc1)N/N=C/c1ccc2c(c1)OCO2 | inconclusive: -46.2% |
| CNc1oc(/C=C/c2cccc(OC)c2)nc1C#N | inconclusive: -31.4% |
| O=[N+]([O-])c1ccccc1/C=N\N1CCN(Cc2ccccc2Cl)CC1 | inconclusive: -33.1% |
| CCOc1ccc(S(=O)(=O)N2CCOCC2)cc1NC(=O)c1ccc(N2CCCC2=O)cc1 | inactive: -14.9% |
| Cc1ccccc1CSc1nc2n(n1)C(c1cccs1)C1=C(CCCC1=O)N2 (stereo unspecified) | inconclusive: -37.6% |

| SMILES | activity change |
| --- | --- |
| COc1cc(F)ccc1-c1csc(C(O)(c2ccccc2)C(F)(F)F)n1 (stereo unspecified) | inconclusive: -33.6% |
| COc1ccc(CCNC(=O)COc2ccc(N(C)S(=O)(=O)c3ccc(C)cc3)cc2)cc1OC | inconclusive: -38.6% |
| COc1ccc2c(c1)O/C(=C\c1sccc1C)C2=O | inactive |
| CCc1nc2ccc(C(=O)N3CCN(c4cccc(C)c4C)CC3)cc2nc1CC | inconclusive: -47.8% |
| Cc1ccc(O)c(NC(=O)c2cc(C)no2)c1 | inactive: 45% |
| CC(=O)Nc1ccc(C(=O)CCl)cc1 | active: -104% |
| Cc1ccc(C)c2c1cc(C)c1nnc(SCC(=O)c3cccs3)n12 | inconclusive: -40.9% |
| CNc1cnc(-c2cc(OC)c(OC)c(OC)c2)cn1 | inconclusive: -33.3% |
| CC(C)(C)OC(=O)NCCCCCNC(=O)c1[nH]cnc1C(=O)Nc1ccc(Cl)cc1 | inconclusive: -41.7% |
| COc1ccc(C2CC(c3cccs3)=NN2C(=O)CSC2=NCCS2)cc1 (stereo unspecified) | active: -81% |
| CCN(CC)c1ccc(-n2c(C)cc(C=O)c2C)cc1 | inconclusive: -39.4% |
| CC(SC1=NCCS1)C(=O)Nc1nnc(-c2ccc(Cl)cc2)s1 (stereo unspecified) | inconclusive: -40.2% |
| O=C(CC(SCCO)c1ccc2c(c1)OCO2)c1ccco1 (stereo unspecified) | active: -56.4% |
| Cn1c(=O)c2[nH]c(CCCCCCCCc3nc4ccccc4[nH]3)nc2n(C)c1=O | active: -59.9% |
| CC1CCCCN1CCNC(=O)c1ccc2c(c1)N(Cc1cccc(Cl)c1)C(=O)c1ccccc1S2=O (stereo unspecified) | inconclusive: -34% |
| O=C(CSC1=NCCS1)N1CCN(c2ccccc2)CC1 | inconclusive: -30.1% |
| CCN(CC)C(=O)c1sc2nc(-c3ccc(OC)cc3)cn2c1C | inconclusive: -39.3% |
| Cc1cc(C(=O)Nc2ccc(Br)cc2F)n(-c2ccccc2)n1 | inconclusive: -42.4% |
| CCn1cnc2cc(NCc3ccc(Br)cc3)ccc21 | inconclusive: -39% |
| Cc1ccc2[nH]c3c(c2c1)SC(C)(C)CC3=O | inactive: 21% |
| COc1ccc(C(C#N)=Cc2ccc(N(C)CCC#N)cc2)cc1 | inactive: -5.01% |
| COc1cc(NC(=O)c2cc3nc(C)cc(C)n3n2)c(OC)cc1Cl | inconclusive: -35.1% |
| CON(c1nc(Cl)nc(N(C)C)n1)S(=O)(=O)c1ccc(C)cc1 | active: -63.1% |

| SMILES | activity change |
| --- | --- |
| CCOC(=O)COc1c(Cl)cc(C2NC(=S)NC(c3ccccc3)=C2C(C)=O)cc1OC (stereo unspecified) | active: -95.3% |
| COc1ccc(C(=O)/C=C/c2cc(C(=O)O)cc3c2OCOC3)c(O)c1 | active: -93.8% |
| CC(C)c1ccccc1NC(=O)C1CN(S(=O)(=O)c2ccccc2)CCN1S(=O)(=O)c1ccccc1 (stereo unspecified) | inconclusive: -30.2% |
| O=S(=O)(/N=C(/Nc1nc2ccccc2s1)c1ccccc1)c1ccccc1 | inactive: 6.62% |
| Cc1ccc(C)c2[nH]c(=O)c(CCNC(=O)c3ccc4c(c3)OCO4)cc12 | inconclusive: -34.4% |
| COC(=O)c1c(NC(=O)CN2CCN(Cc3ccc4c(c3)OCO4)CC2)sc(C)c1C | active: -75.9% |
| COc1ccc(S(=O)(=O)N2CCOCC2)cc1NC(=O)c1ccc(SC)cc1OC | inconclusive: -37.9% |
| CS(=O)(=O)c1ccc(C(=O)OCC(=O)c2ccc(Cl)s2)cc1 | inactive: 26.3% |
| CCc1ccc(NC(=O)C2=CC(c3ccc(OC)cc3)=NS(=O)(=O)N2C)cc1 | inactive: -10.2% |
| O=C(/C=C/c1ccncc1)c1cc(Cl)ccc1O | active: -66.8% |
| CCn1nc(C)cc1C(=O)Sc1ccc(C)cc1 | inconclusive: -41% |
| Cc1nccn1CCC(=O)NC1CCCc2c1cnn2-c1ccc(C(C)(C)C)cc1 (stereo unspecified) | inconclusive: -32.1% |
| COc1cccc(/C=N/NC(=O)c2cccc([N+](=O)[O-])c2)c1OS(=O)(=O)c1ccc(C)cc1 | inconclusive: -34% |
| CCOc1cc(/C=C2\COc3ccccc3C2=O)cc(Br)c1OCC(=O)N(C)C | active: -103% |
| Cc1cc(C)nc(/N=C(\N)Nc2ccc(CC(=O)OC(C)C)cc2)n1 | active: -98.9% |
| CCOc1cc(CNCCSc2nnnn2C)cc(Br)c1OCc1ccccc1 | active: -56.2% |
| COc1ccc(C2CC(c3ccc([N+](=O)[O-])cc3)=NN2C(C)=O)cc1 (stereo unspecified) | inconclusive: -40.8% |
| C=CCN1C(=O)C(Cc2ccc(C)cc2)S/C1=N/N=C/c1ccco1 (stereo unspecified) | inconclusive: -32% |
| CSc1nc(SCC(N)=O)c2c3c(sc2n1)CN(C)CC3 | inconclusive: -46.2% |
| COC(=O)c1cccc(NC(=O)CCSc2ccc(Cl)cc2)c1C | inconclusive: -32.9% |
| CN(C)CCCN(C(=O)c1cccs1)c1nc(-c2ccccc2)cs1 | inconclusive: -37.8% |
| COc1cc(-c2cc(=O)c3c(O)cc(O)cc3o2)ccc1O | active: -63.8% |
